# In PMC4336329 (PLoS ONE, 2015):
# Screen size: about 310,000 compounds; about 2,200 (0.71%) showed an effect of 50% or more. The effect is printed as a negative number. Some of the results follow.
# Molecular target: human ether-à-go-go-related gene (hERG) potassium channel (human, UniProt Q12809)
# Test: primary screen, population patch clamp on CHO cells stably expressing hERG
# Chain of human ether-à-go-go-related gene (hERG) potassium channel (Q12809 whole entry, looked up): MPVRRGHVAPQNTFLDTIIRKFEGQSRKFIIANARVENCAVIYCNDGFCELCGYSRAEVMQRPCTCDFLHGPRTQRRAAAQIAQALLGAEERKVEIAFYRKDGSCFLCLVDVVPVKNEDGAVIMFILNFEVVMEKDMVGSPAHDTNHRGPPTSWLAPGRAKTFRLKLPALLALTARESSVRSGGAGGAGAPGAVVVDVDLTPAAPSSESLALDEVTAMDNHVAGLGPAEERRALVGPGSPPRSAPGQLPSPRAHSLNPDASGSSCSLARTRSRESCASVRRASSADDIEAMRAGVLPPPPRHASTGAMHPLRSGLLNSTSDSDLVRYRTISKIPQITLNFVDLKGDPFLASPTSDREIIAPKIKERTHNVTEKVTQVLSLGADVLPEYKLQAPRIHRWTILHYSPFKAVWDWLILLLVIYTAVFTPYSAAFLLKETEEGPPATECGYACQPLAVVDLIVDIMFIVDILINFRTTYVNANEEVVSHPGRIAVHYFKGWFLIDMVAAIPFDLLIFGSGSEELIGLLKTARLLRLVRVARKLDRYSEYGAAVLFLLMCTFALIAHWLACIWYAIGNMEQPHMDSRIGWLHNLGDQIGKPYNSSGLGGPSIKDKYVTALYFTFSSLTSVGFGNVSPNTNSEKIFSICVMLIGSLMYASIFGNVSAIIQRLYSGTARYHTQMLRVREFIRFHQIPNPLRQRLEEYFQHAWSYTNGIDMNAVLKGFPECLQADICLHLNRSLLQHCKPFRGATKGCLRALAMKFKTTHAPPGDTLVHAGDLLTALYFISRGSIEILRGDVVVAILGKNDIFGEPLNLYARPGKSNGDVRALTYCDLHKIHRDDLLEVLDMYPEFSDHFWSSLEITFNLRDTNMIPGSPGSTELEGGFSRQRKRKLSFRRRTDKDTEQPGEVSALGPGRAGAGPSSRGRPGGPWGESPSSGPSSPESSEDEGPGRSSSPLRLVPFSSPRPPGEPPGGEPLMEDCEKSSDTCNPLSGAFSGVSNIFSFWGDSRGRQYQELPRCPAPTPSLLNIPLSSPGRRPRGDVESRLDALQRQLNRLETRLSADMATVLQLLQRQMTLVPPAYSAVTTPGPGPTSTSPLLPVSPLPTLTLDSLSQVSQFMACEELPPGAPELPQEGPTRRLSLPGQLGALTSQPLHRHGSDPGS
row,SMILES,"hERG current change (%, negative = inhibition) at 1uM [%]"
1,CCn1cc(CN2CCC(C(=O)Nc3ccc(Oc4cccnc4)cc3)CC2)c(C)n1,4.08
2,Cc1occc1C(=O)N1CCN(c2ccc([N+](=O)[O-])cc2)CC1,-45.8
3,O=C(Cc1ccccc1)c1nnc(-c2ccccc2)o1,13.5
4,CCc1cc(=O)oc2cc(C)cc(OCC(=O)NC3CC3)c12,7.02
5,O=C(NCCc1ccccc1)c1ccc(CS(=O)(=O)Cc2ccccc2F)o1,-7.19
6,CCO[C@@H]1OC(C(=O)N2CCN(Cc3ccccc3)CC2)=C[C@H](c2csc3ccccc23)[C@H]1CCCO,8.19
7,COc1ccc(CCN2CC(O)=C(c3nc4ccccc4c(=O)[nH]3)C2=N)cc1OC,6.05
8,CCN(c1ccccc1)S(=O)(=O)c1cc(C(=O)NCc2ccco2)ccc1C,7.99
9,O=C(Nc1cccc(Cl)c1)N(Cc1nc2ccccc2c(=O)[nH]1)Cc1cccs1,0.998
10,Cc1cc(C)c2c(N)c(C(=O)Nc3nccs3)sc2n1,13
11,COc1ccc(S(=O)(=O)ON=C2CC(C)(C)N(C(C)=O)C(C)(C)C2)cc1,19.5
12,Cc1cc([N+](=O)[O-])ccc1NC(=O)COc1nsnc1N1CCOCC1,-7.59
13,O=P(COCCO)(c1ccccc1)c1ccccc1,3.27
14,CN1C(=O)/C(=C/c2ccccc2Cl)Sc2ccc(C(=O)N3CCCC3)cc21,8.85
15,Cc1cc(=O)n(CC(C)C)c(O)c1C#N,17.5
16,CC(=O)c1ccc(OC(=O)/C=C/c2ccccc2)cc1,12
17,Clc1cc2c(cc1/C=N/Nc1nc(N3CCOCC3)nc(N3CCOCC3)n1)OCO2,12.5
18,O=C(CNS(=O)(=O)c1ccccc1)NCc1cccnc1,10.5
19,Nc1c(Cl)cc(C(=O)c2c3ccc([N+](=O)[O-])cc3[n+]([O-])n2CCC[NH3+])cc1Cl.O=C([O-])C(F)(F)F,1.56
20,COc1cccc(CC(=O)N(CCC2=CCCCC2)c2c(N)n(Cc3ccccc3)c(=O)[nH]c2=O)c1,15.1
21,CC1CC(C)CN(C(=O)c2ccc(CNc3c(N4CCCC4)c(=O)c3=O)cc2)C1 (stereo not drawn),19.7
22,O=C(NCc1ccc(N2CCCC2=O)cc1)NC1CCCCC1,5.68

row,SMILES,"hERG current change (%, negative = inhibition) at 1uM [%]"
1,Cc1ccc(S(=O)(=O)Nc2nc(C)c(C(=O)NN)s2)cc1,6.68
2,O=c1cc(-c2ccccc2)nc2c(-c3ccccc3)c(C(F)(F)F)[nH]n12,9.52
3,Clc1cnc(Oc2ccc(Oc3ncc(Cl)cc3Cl)cc2)c(Cl)c1,11.7
4,COC(=O)c1c(Sc2ccccc2)c2ccccc2n1C,10.1
5,CCN1CCN(c2ccc(S(=O)(=O)N3CCCCC3)cc2NC(=O)/C=C/c2cccc(OC)c2OC)CC1,6.17
6,CCOc1ccc(CCNC(=O)COC(=O)c2cccnc2Cl)cc1OCC,17.2
7,Cc1onc(-c2ccccc2)c1C(=O)N1CCN(c2ccc([N+](=O)[O-])cc2)CC1,-17.4
8,C[C@@H](NC(=O)C1(c2ccccc2)CCN(C(=O)OC(C)(C)C)CC1)C(=O)N[C@@H](C(=O)O)c1ccccc1,10.9
9,CN(CC(=O)Nc1cccc(F)c1)C(=O)/C=C/c1cc(Br)ccc1OC(F)F,-3.68
10,O=C(NCC(=O)N(Cc1ccccc1)C(C(=O)NCC1CCCO1)c1ccccc1)c1ccco1 (stereo not drawn),6.15
11,COc1ccc(CCC(=O)NCc2ccco2)cc1,2.07
12,Cc1cnc(C(=O)OCc2c(C)cc(C(C)(C)C)cc2C)cn1,14.4
13,O=C1CN(C(=O)COC(=O)CCC(=O)c2ccc3c(c2)OCCO3)c2ccccc2N1,-11.1
14,CC(=O)N1c2ccccc2C(=O)OC1c1cccnc1 (stereo not drawn),20.6
15,CC(=O)N1c2ccc(S(=O)(=O)N(C)CC(=O)NCc3ccccc3)cc2CC1C (stereo not drawn),13.3
16,CCN1C(=O)c2cccc3c(S(=O)(=O)NCc4ccccn4)ccc1c23,-10.5
17,CC(=O)N1c2ccc(S(=O)(=O)N3c4ccccc4CC3C)cc2CC1C (stereo not drawn),7.91
18,O=S(=O)(Nc1ccc(-c2csc(-c3ccccc3)n2)cc1)c1ccccc1,-4.45
19,CSCC[C@H](NC(=O)Cc1c(C)c2c(cc(C)c3c(C)c(C)oc32)oc1=O)C(=O)O,9.6
20,O=C(Nc1nnc(C2=COCCO2)o1)c1ccc([N+](=O)[O-])cc1,15.7
21,O=C(CSc1ccc(Cl)cc1)N1CCCC1,2.74
22,CCC(C)(C)n1nnnc1CN(Cc1ccc(Cl)cc1)Cc1ccco1,2

row,SMILES,"hERG current change (%, negative = inhibition) at 1uM [%]"
1,Cc1ccc(C(=O)NCCNC(=O)c2ccc(C)o2)o1,5.42
2,CC1(C)CC(=O)C2=C(C1)N(CC1CCCO1)C(=O)NC2(C(F)(F)F)C(F)(F)F (stereo not drawn),0.219
3,CCCC(=O)Nc1sc(-c2ccccc2)c(-c2ccccc2)c1C(=O)O,13.8
4,O=C(Cn1cncn1)NCc1cccc(OC(F)F)c1,8.71
5,O=C(Cc1cccs1)OCC(=O)c1ccco1,-0.558
6,Cc1ccc(/C=C/C(=O)NCc2cccs2)cc1,15.3
7,CCn1c(-c2cccn(Cc3ccccc3)c2=O)n[nH]c1=S,23.4
8,O=S(=O)(c1ccc2ccccc2c1)N1CCCCC1,-6.42
9,CCc1ccc(/C(C)=N/NC(=O)CNC(=O)/C=C/c2ccccc2OC)cc1,12.6
10,COc1ccccc1OCCC(=O)OCC(=O)NC(=O)NC(C)(C)C,3.66
11,Cc1nn(CC(=O)NC2C(=O)N3C(C(=O)O)=C(CSc4nnnn4C)CSC23)cc1Br (stereo not drawn),5.33
12,COc1ccccc1N(C(=O)c1ccco1)C(C(=O)NC1CCCC1)c1ccncc1 (stereo not drawn),7.32
13,NC1=[NH+]C2CS(=O)(=O)CC2S1.[Br-] (stereo not drawn),-16.4
14,CCOC(=O)C(C)On1c(-c2ccc(Cl)cc2)nc2ccc([N+](=O)[O-])cc21 (stereo not drawn),0.757
15,CCn1nnnc1SCC(=O)c1ccc2c(c1)OCCO2,22.6
16,CCN(CC)CCNc1nc2ccccc2n1C,9.38
17,Cc1ccccc1CN1C(=O)CS/C1=N/N=C/c1ccco1,5.15
18,CCOc1ccc(OCC)c(NC(=O)Cn2c(C)nc3ccccc3c2=O)c1,-0.775
19,O=C(c1ccc(Cl)c([N+](=O)[O-])c1)N1CCN(S(=O)(=O)c2ccc(Cl)cc2)CC1,2.32
20,COc1ccc(C(O)c2ccccc2OP(=O)(N(C)C)N(C)C)cc1 (stereo not drawn),2.72
21,CC(C)(O)C#Cc1ccc(C(=O)NCCc2ccc(S(N)(=O)=O)cc2)cc1,10.7
22,O=C(c1ccco1)N1CCN(C(=O)c2ccc(COc3ccc4c(c3)CCC4)o2)CC1,-21

row,SMILES,"hERG current change (%, negative = inhibition) at 1uM [%]"
1,CCOc1cc(C(=O)N(C)Cc2cc3ccccc3[nH]c2=O)cc(OCC)c1OCC,5.23
2,Cc1ccc(C2NC(=O)c3c(sc4c3CCN(C)C4)N2)s1 (stereo not drawn),-1.01
3,O=C(Nc1cccc(NC(=O)c2ccccc2Cl)c1)c1ccc([N+](=O)[O-])o1,9.67
4,O=C1c2ccccc2NC(c2ccco2)N1/N=C/c1ccco1 (stereo not drawn),12.6
5,COc1cccc(CNCCSc2nnnn2C)c1.Cl,-6.84
6,CN(CC(=O)Nc1ccccc1C(F)(F)F)C(=O)c1cc(Cl)nc2ccccc12,10.8
7,Cc1nnc(SCC(=O)Nc2ccc(Oc3ccccc3)cc2)n1N,12.9
8,CSc1ncccc1C(=O)N(C)CC(=O)Nc1cccc(F)c1,13.1
9,CC1CCN(c2c(NCC3CCC(C(=O)NCCCc4ccccc4)CC3)c(=O)c2=O)CC1 (stereo not drawn),8.36
10,Cl.O=C(CN1CCOCC1)NCc1cc([N+](=O)[O-])ccc1O,11.5
11,O=[N+]([O-])c1ccc(Nc2nc(N3CCOCC3)nc(N3CCOCC3)n2)cc1,8.29
12,CCc1ccc(CNCc2cccs2)cc1.Cl,-5.46
13,O=C(O)C(Cc1ccccc1)n1cccc1 (stereo not drawn),10.1
14,Clc1nc(Nc2ccccc2)nc(Nc2ccccc2)n1,3.76
15,O=C(CCc1nc(-c2ccccc2)no1)NCC1CCCO1 (stereo not drawn),11.9
16,O=C(Cc1n[nH]c(=O)c2ccccc12)OCC(=O)c1ccc(F)cc1,-8.17
17,Cc1ccc(-c2nc3cccnc3s2)cc1NC(=O)c1ccco1,-1.2
18,Fc1ccc2nc(Nc3nc4cc5c(cc4s3)OCCO5)sc2c1,11.9
19,Cc1cc(/C=C(\C#N)c2nc3ccccc3[nH]2)c(C)n1C,13.5
20,Cc1cccc(N2CCCn3c2nc2c3c(=O)[nH]c(=O)n2C)c1,2.54
21,C/C(=N\NC(=O)CNC(=O)C(c1ccccc1)c1ccccc1)c1ccc(C(C)(C)C)cc1,2.98
